# Results as given in PubChem BioAssay (Tox21).
# Values joined by “and” are separate entries in the source; they are usually repeats but may differ in a detail not shown here. Equal entries are not always repeated. Inconclusive means that the source gave no clear call. Such entries were picked first, then a sample of the others. For some of these results: Where the call is inconclusive, the potency comes from a doubtful curve fit. Active and inactive are the calls of the source. Unless noted, the call rests on the fitted dose curve; in most records, active means well fitted curve in the direction sought with a large enough effect in the repeat runs; inconclusive means weak or mixed curves; inactive means no such curve, though single readings can be large; an effect the other way counts as inactive or inconclusive.
# What was measured:
# [1] = qHTS assay to identify aromatase inhibitors - cell viability counter screen (AID 743084); conditions: MCF-7 aro ERE viability, CellTiter-Fluor, 24 h; activity change, negative = cytotoxicity: at 70.3 µM (top of the series);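 further: cells stimulated with testosterone during compound exposure; nearly all actives have a fitted effect of over 55% in size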; further: potency means the concentration at half of the fitted maximal effect
# [2] = target: Peroxisome proliferator-activated receptor gamma (Homo sapiens) (UniProt P37231); assay: qHTS assay to identify small molecule antagonists of the peroxisome proliferator-activated receptor gamma (PPARg) signaling pathway (AID 743191; calls by dose curve; further: nearly all actives have a fitted effect of over 30% in size; further: potency means the concentration at half of the fitted maximal effect); conditions: HEK293H PPARg-UAS-bla, beta-lactamase ratio, antagonist, 17 h; ratio activity, negative = inhibition: at 62.6 µM (top of the series) unless noted
# Chain of UniProt P37231 (P37231 whole entry, looked up): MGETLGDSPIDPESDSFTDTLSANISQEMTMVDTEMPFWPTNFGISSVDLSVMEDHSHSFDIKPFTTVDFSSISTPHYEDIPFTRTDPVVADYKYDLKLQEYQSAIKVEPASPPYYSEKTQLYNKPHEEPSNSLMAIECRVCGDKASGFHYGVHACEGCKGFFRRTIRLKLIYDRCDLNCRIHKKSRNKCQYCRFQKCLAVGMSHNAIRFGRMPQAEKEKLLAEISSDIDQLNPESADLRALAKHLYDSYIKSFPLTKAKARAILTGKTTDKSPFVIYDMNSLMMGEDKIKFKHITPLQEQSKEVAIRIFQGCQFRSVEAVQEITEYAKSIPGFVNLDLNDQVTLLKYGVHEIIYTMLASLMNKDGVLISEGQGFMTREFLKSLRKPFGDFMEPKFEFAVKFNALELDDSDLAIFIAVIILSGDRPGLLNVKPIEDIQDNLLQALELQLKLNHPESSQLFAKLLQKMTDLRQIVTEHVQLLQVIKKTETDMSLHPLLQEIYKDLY
# How it was run: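 GeneBLAzer PPARg UAS-bla HEK293H cells carrying a UAS-driven beta-lactamase reporter were plated at 3000 cells/well, preincubated 5 h at 37C, then given compound for 17 h at 37C; LiveBLAzer B/G FRET substrate was read after 1 h at room temperature.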
# [3] = qHTS assay to identify small molecule antagonists of the peroxisome proliferator-activated receptor gamma (PPARg) signaling pathway - cell viability counter screen (AID 743194); conditions: PPARg-bla HEK293H viability, CellTiter-Glo luminescence, 17 h, co-treated with 50 nM rosiglitazone; activity change, negative = cytotoxicity: at 62.6 µM (top of the series); further: potency means the concentration at half of the fitted maximal effect; nearly all actives have a fitted effect of over 55% in size
# How it was run: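 PPARg-UAS-bla HEK293H cells were plated, rested 5 h at 37 C, then treated with compounds plus rosiglitazone (50 nM final) for 17 h at 37 C; viability was then read by CellTiter-Glo luminescence after 30 min at room temperature.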
# [4] = qHTS assay for small molecule agonists of the antioxidant response element (ARE) signaling pathway (AID 743202; active means well fitted activation curve with a large enough effect in the signal ratio in the repeat runs, not every such curve was filed as active; inconclusive means weak or mixed curves, or effect the other way; inactive means no such curve, though single readings can be large or run the other way; the % refers to the signal ratio; further: potency means the concentration at half of the fitted maximal effect); conditions: HepG2 ARE-bla reporter, beta-lactamase FRET, 16 h; activation: at 73.3 µM (top of the series) unless noted
# How it was run: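 Steps: seed ARE-bla HepG2 cells (2,000/well); incubate 5 h at 37 C; add compounds by pin tool; incubate 16 h at 37 C; add FRET substrate; read fluorescence after 2 h at RT.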
# [5] = qHTS assay for small molecule agonists of the antioxidant response element (ARE) signaling pathway - cell viability counter screen (AID 743203; calls by dose curve; further: potency means the concentration at half of the fitted maximal effect; nearly all actives have a fitted effect of over 55% in size); conditions: ARE-bla HepG2 viability, CellTiter-Glo luminescence, 16 h; viability change, negative = cytotoxic: at 73.3 µM (top of the series)
# How it was run: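 Viability counter screen: stably transfected ARE-bla HepG2 line, 16 hrs compound exposure at 37C/5% CO2, ATP-based CellTiter-Glo luminescence measured in the reporter wells.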
# [6] = qHTS assay for small molecule activators of the heat shock response signaling pathway (AID 743210; active means well fitted activation curve with a large enough effect in the signal ratio in the repeat runs, with a control signal flat, not every such curve was filed as active; inconclusive means weak or mixed curves; the % refers to the signal ratio; further: potency means the concentration at half of the fitted maximal effect); conditions: HeLa HSE-bla reporter, beta-lactamase ratio, 5 h; activation: at 62.6 µM (top of the series)
# How it was run: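 Activation of heat shock element-controlled beta-lactamase expression is measured in HeLa cells by LiveBLAzer FRET fluorescence, with compound exposure lasting 5 h at 37 C and substrate loading 2.5 h at room temperature.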
# [7] = qHTS assay to identify small molecule agonists of the peroxisome proliferator-activated receptor delta (PPARd) signaling pathway - cell viability counter screen (AID 743211); conditions: PPARd-bla HEK293H viability, CellTiter-Glo luminescence, 17 h; activity change, negative = cytotoxicity: at 62.6 µM (top of the series); further: nearly all actives have a fitted effect of over 55% in size; further: potency means the concentration at half of the fitted maximal effect
# How it was run: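 Counter screen for cytotoxicity run in parallel with the PPARd reporter screen. Beta-lactamase reporter HEK293H cells exposed to compounds 17 h; ATP-based CellTiter-Glo luminescence quantified viability.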
# [8] = qHTS assay to identify small molecule antagonists of the peroxisome proliferator-activated receptor delta (PPARd) signaling pathway - cell viability counter screen (AID 743213); conditions: PPARd-bla HEK293H viability, CellTiter-Glo luminescence, 17 h; viability change, negative = cytotoxic: at 62 µM (top of the series) unless noted; further: nearly all actives have a fitted effect of over 50% in size; further: potency means the concentration at half of the fitted maximal effect; on viability change, negative = cytotoxic: on the % scale 0 is the no-effect control and ±100 the full control effect
# How it was run: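 Viability counter-screen, qHTS format: PPARd-bla HEK293H, L165041 300 nM final, 17 h compound exposure at 37 C, CellTiter-Glo luminescence after 30 min RT.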
# [9] = target: Peroxisome proliferator-activated receptor delta (Homo sapiens) (UniProt Q03181); assay: qHTS assay to identify small molecule antagonists of the peroxisome proliferator-activated receptor delta (PPARd) signaling pathway (AID 743215; active means well fitted inhibition curve with a large enough effect in the signal ratio in the repeat runs, not every such curve was filed as active; inconclusive means weak or mixed curves, or effect the other way; inactive means no such curve, though single readings can be large or run the other way; the % refers to the signal ratio;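 further: cells stimulated with agonist L165041 at 300 nM final during compound exposure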; further: potency means the concentration at half of the fitted maximal effect); conditions: HEK293H PPARd-UAS-bla, beta-lactamase FRET ratio, antagonist, 17 h; ratio activity, negative = inhibition: at 62 µM (top of the series) unless noted
# Chain of UniProt Q03181 (Q03181 whole entry, looked up): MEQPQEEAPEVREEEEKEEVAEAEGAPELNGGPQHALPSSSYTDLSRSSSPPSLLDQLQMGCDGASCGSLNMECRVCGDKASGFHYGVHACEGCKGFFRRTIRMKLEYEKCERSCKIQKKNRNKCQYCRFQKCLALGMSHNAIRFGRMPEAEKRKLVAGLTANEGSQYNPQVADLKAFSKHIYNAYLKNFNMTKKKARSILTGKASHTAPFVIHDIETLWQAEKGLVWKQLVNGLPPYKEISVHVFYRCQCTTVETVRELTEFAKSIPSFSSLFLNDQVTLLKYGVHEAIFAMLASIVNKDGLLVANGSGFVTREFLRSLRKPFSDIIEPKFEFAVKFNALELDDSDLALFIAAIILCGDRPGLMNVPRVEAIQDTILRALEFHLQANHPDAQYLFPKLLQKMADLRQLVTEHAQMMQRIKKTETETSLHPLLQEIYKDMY
# How it was run: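 Plated HEK293H PPARd-bla cells rested 5 h at 37 C and 5% CO2. Compound, then agonist L165041 at 300 nM final, was added; 17 h at 37 C followed. Substrate loading, 2 h room temperature, fluorescence measured.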
# [10] = target: Vitamin D3 receptor (Homo sapiens) (UniProt P11473); assay: qHTS assay to identify small molecule agonists of the vitamin D receptor (VDR) signaling pathway (AID 743222; calls by dose curve; further: potency means the concentration at half of the fitted maximal effect; on activation: on the % scale 0 is the no-effect control and ±100 the full control effect); conditions: HEK293T VDR-UAS-bla, beta-lactamase FRET ratio, 16 h; activation: at 63.5 µM (top of the series) unless noted
# Chain of UniProt P11473 (P11473 whole entry, looked up): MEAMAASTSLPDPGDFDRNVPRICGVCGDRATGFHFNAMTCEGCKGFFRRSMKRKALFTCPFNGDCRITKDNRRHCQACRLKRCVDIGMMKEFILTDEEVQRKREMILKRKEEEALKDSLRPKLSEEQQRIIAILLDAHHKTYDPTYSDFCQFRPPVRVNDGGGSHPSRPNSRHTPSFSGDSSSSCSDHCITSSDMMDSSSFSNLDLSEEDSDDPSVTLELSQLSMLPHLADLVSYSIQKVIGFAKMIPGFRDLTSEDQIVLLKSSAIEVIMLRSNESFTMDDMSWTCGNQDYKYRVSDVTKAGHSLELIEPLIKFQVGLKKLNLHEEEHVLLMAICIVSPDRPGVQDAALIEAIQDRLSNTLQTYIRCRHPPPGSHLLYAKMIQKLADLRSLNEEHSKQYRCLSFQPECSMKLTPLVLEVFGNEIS
# How it was run: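 Fluorescence from cleaved LiveBLAzer B/G FRET substrate served as readout. VDR-bla cells had been treated 16 h at 37C with test compounds in DMSO, following a 4 h settling period, and substrate was loaded for 2 h at RT.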
# [11] = target: Vitamin D3 receptor (Homo sapiens) (UniProt P11473); assay: qHTS assay to identify small molecule antagonists of the vitamin D receptor (VDR) signaling pathway (AID 743223; active means well fitted inhibition curve with a large enough effect in the signal ratio in the repeat runs, not every such curve was filed as active; inconclusive means weak or mixed curves, or effect the other way; inactive means no such curve, though single readings can be large or run the other way; the % refers to the signal ratio; further: potency means the concentration at half of the fitted maximal effect; on activity change, negative = inhibition: on the % scale 0 is the no-effect control and ±100 the full control effect); conditions: VDR-UAS-bla HEK293T, beta-lactamase FRET ratio, 16 h; activity change, negative = inhibition: at 61 µM (top of the series) unless noted
# How it was run: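 Cells carrying a VDR-driven beta-lactamase reporter (VDR-bla) were co-treated with compound and 3 nM final 1alpha,25-dihydroxyvitamin D3 for 16 h at 37C; reporter activity was measured as FRET substrate fluorescence after 2 h at room temperature.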
# [12] = target: Peroxisome proliferator-activated receptor delta (Homo sapiens) (UniProt Q03181); assay: qHTS assay to identify small molecule agonists of the peroxisome proliferator-activated receptor delta (PPARd) signaling pathway (AID 743212; calls by dose curve; further: on the % scale 0 is the no-effect control and ±100 the full control effect); conditions: HEK293H PPARd-UAS-bla, beta-lactamase FRET ratio, 17 h; activation: at 62.6 µM (top of the series) unless noted
# How it was run: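 Cells expressing a UAS-driven beta-lactamase reporter (PPARd-bla HEK293H) were given test compounds after a 5 h settle and kept at 37 C. Reporter activity was then measured as FRET fluorescence using LiveBLAzer B/G substrate.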
# [13] = qHTS assay to identify small molecule agonists of the farnesoid-X-receptor (FXR) signaling pathway - cell viability counter screen (AID 743218); conditions: FXR-bla HEK293T viability, CellTiter-Glo luminescence, 16 h; viability change, negative = cytotoxic: at 62.6 µM (top of the series) unless noted; further: nearly all actives have a fitted effect of over 45% in size; further: potency means the concentration at half of the fitted maximal effect
# How it was run: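 Viability of FXR-bla HEK 293T cells is measured by ATP-based CellTiter-Glo luminescence following 16 h compound treatment at 37 C and a prior 2 h room-temperature beta-lactamase substrate step.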
# [14] = target: Bile acid receptor (Homo sapiens) (UniProt Q96RI1); assay: qHTS assay to identify small molecule antagonists of the farnesoid-X-receptor (FXR) signaling pathway (AID 743217; active means well fitted inhibition curve with a large enough effect in the signal ratio in the repeat runs, not every such curve was filed as active; inconclusive means weak or mixed curves, or effect the other way; inactive means no such curve, though single readings can be large or run the other way; the % refers to the signal ratio; further: potency means the concentration at half of the fitted maximal effect); conditions: HEK293T FXR-UAS-bla, beta-lactamase ratio, CDCA-stimulated, 16 h; activity change, negative = inhibition: at 62.6 µM (top of the series) unless noted
# Chain of UniProt Q96RI1 (Q96RI1 whole entry, looked up): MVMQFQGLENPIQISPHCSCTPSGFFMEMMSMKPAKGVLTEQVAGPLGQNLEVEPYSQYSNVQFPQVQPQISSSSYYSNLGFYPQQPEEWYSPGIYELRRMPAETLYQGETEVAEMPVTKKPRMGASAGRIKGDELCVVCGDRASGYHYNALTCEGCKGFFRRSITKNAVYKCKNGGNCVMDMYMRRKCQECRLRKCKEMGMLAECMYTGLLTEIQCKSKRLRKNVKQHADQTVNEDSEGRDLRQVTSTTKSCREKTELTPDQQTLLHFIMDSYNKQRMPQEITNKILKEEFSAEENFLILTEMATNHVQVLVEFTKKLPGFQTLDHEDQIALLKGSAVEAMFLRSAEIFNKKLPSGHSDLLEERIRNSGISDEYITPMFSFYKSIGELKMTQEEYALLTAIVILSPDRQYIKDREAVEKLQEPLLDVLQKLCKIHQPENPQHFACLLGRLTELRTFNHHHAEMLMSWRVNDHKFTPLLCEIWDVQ
# How it was run: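 Screen of the Tox21 10K library in quantitative HTS format using FXR-UAS-bla HEK 293T reporter cells. Agonist chenodeoxycholic acid, 50 uM final, added with compounds; 16 h incubation at 37 °C; beta-lactamase FRET fluorescence measured.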
# [15] = qHTS assay to identify small molecule antagonists of the farnesoid-X-receptor (FXR) signaling pathway - cell viability counter screen (AID 743221; active means well fitted cell-killing curve with a large enough effect in the repeat runs, not every such curve was filed as active; inconclusive means weak or mixed curves, or effect the other way; inactive means no such curve, though single readings can be large or run the other way; further: nearly all actives have a fitted effect of over 50% in size; further: potency means the concentration at half of the fitted maximal effect); conditions: FXR-bla HEK293T viability, CellTiter-Glo luminescence, 16 h; activity change, negative = cytotoxicity: at 62.6 µM (top of the series)
# How it was run: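 Multiplexed counter screen: viability of FXR-bla HEK 293T cells under agonist stimulation by chenodeoxycholic acid (50 uM, final) and test compound for 16 h at 37 C, measured by CellTiter-Glo luminescence in the reporter wells.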
# [16] = qHTS assay for small molecule activators of the heat shock response signaling pathway - cell viability counter screen (AID 743209); conditions: HSE-bla HeLa viability, CellTiter-Glo luminescence, 5 h; activity change, negative = cytotoxicity: at 62.6 µM (top of the series); further: potency means the concentration at half of the fitted maximal effect; nearly all actives have a fitted effect of over 50% in size
# How it was run: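 Viability of HSE-bla HeLa cells is measured with CellTiter-Glo in the wells already used for the reporter read. Compound exposure lasts 5 h at 37 C, and luminescence is read after 30 min at room temperature.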
# Tags describe the fitted curve by direction and shape or compound fluorescence and quenching.
smiles,measurement,setting,value
CCc1ccc(O)c(C(C)(C)C)c1,Potency,[1],"inconclusive: 68.6 µM [cytotoxic, single point]"
same,Potency,[2],inconclusive: 24.5 µM [activator]
same,Potency,[3],"inconclusive: 1.95 µM [rising, partial curve, poor fit]"
same,Potency,[4],inconclusive: 54.5 µM
same,Potency,[5],"inconclusive: 61.1 µM [cytotoxic, single point]"
same,Potency,[6],"inconclusive: 61.6 µM [falling, single point]"
same,Potency,[7],"inconclusive: 54.9 µM [cytotoxic, single point]"
same,"viability change, negative = cytotoxic",[8],inconclusive: -48.7% [cytotoxic]
same,Potency,[9],"inconclusive: 12.3 µM [falling, full curve]"
same,Potency,[10],inactive
same,"activity change, negative = inhibition",[11],inconclusive: -33.7%
C[n+]1ccn(Cc2ccccc2)c1,Potency,[1],"inconclusive: 76.6 µM [rising, single point]"
same,"ratio activity, negative = inhibition",[2],inconclusive: -6.49%
same,Potency,[4],inconclusive: 68.3 µM
CCO[Si](C)(CCCOCC1CO1)OCC (stereo unspecified),Potency,[1],"inconclusive: 48.6 µM [cytotoxic, partial curve, poor fit]"
same,Potency,[2],"inconclusive: 5.49 µM [activator, full curve, poor fit]"
same,activation,[4],inconclusive: 39.4%
same,Potency,[6],"inconclusive: 61.6 µM [activator, partial curve, poor fit]"
same,Potency,[7],"inconclusive: 21.9 µM [cytotoxic, partial curve, poor fit]"
same,activation,[10],inconclusive: -21.1%
CCC(C)NC(N)=O (stereo unspecified),Potency,[1],"inconclusive: 68.6 µM [rising, partial curve, poor fit]"
same,"ratio activity, negative = inhibition",[2],inconclusive: 4.76%
same,Potency,[12],inactive
same,Potency,[13],inactive
same,Potency,[10],inactive
CCCCCCCCCCCCCCCS(=O)(=O)Oc1ccccc1,Potency,[1],inactive
same,"ratio activity, negative = inhibition",[2],inconclusive: 22.6%
same,activation,[4],inconclusive: 2.5%
same,Potency,[6],inconclusive: 3.38 µM
same,Potency,[14],"inconclusive: 2.39 µM [inhibitor, full curve]"
same,Potency,[15],"inconclusive: 12 µM [falling, partial curve, poor fit]"
same,Potency,[11],inactive
CCOC(=O)COc1ccc(C)cc1,Potency,[1],inactive
same,Potency,[2],"inconclusive: 49 µM [activator, partial curve]"
same,Potency,[16],"inconclusive: 54.9 µM [cytotoxic, single point]"
same,Potency,[6],inconclusive: 61.6 µM
same,Potency,[14],inactive
same,Potency,[15],inactive
same,Potency,[10],"inconclusive: 61.6 µM [inhibitor, partial curve, poor fit]"
same,Potency,[11],inactive
c1cc(-c2ccncc2)ccn1,Potency,[1],inactive
same,Potency,[4],"inconclusive: 21.9 µM [falling, partial curve, poor fit]"
same,activation,[4],inconclusive: -17.6%
same,Potency,[11],"inactive and inconclusive: 54.9 µM [activator, partial curve, poor fit]"
Nc1cccc(N)n1,Potency,[1],"inconclusive: 41.8 µM [rising, partial curve]"
same,Potency,[2],inactive
same,Potency,[4],"inconclusive: 27.3 µM [falling, partial curve, poor fit]"
same,Potency,[15],inactive
same,Potency,[10],inactive
CCCCCCCCCI,Potency,[1],inactive
same,Potency,[2],inactive
same,Potency,[7],inactive
CC(C)(C)c1cc(O)c(C(C)(C)C)cc1O,Potency,[1],"inconclusive: 24.3 µM [cytotoxic, partial curve]"
same,Potency,[2],"inconclusive: 24.5 µM [fluorescent, full curve]"
same,Potency,[3],"inconclusive: 0.977 µM [rising, full curve, poor fit]"
same,Potency,[4],"inconclusive: 24.3 µM [rising, partial curve]"
same,Potency,[5],inconclusive: 68.6 µM [cytotoxic]
same,Potency,[7],"inconclusive: 61.6 µM [cytotoxic, partial curve, poor fit]"
same,"ratio activity, negative = inhibition",[9],inconclusive: -27.1%
same,Potency,[15],inactive
CCCCC(CC)CN1C(=O)C2C3C=CC(C3)C2C1=O (stereo unspecified),Potency,[1],active: 54.5 µM
same,"ratio activity, negative = inhibition",[2],inconclusive: -13.4%
same,Potency,[4],inactive
same,Potency,[7],"inconclusive: 30.9 µM [cytotoxic, partial curve, poor fit]"
same,Potency,[8],"inconclusive: 49 µM [cytotoxic, partial curve, poor fit]"
same,Potency,[9],inactive
same,Potency,[13],"inconclusive: 34.7 µM [rising, partial curve, poor fit]"
same,Potency,[15],"inconclusive: 49 µM [falling, single point]"
same,Potency,[11],inconclusive: 54.9 µM [single point]
CCCCC/C(=C\c1ccccc1)CO,Potency,[1],"inconclusive: 60.4 µM [cytotoxic, single point]"
same,"ratio activity, negative = inhibition",[2],inconclusive: -4.38% [at 81.1 µM]
same,Potency,[3],"inconclusive: 24.3 µM [cytotoxic, full curve, poor fit]"
same,Potency,[4],inactive
same,Potency,[8],"inconclusive: 68.4 µM [cytotoxic, single point]"
same,"ratio activity, negative = inhibition",[9],inconclusive: -14.2% [at 80.4 µM]
same,Potency,[10],inactive
